Results from the supplement of paper PMC4967469.
The IC50 comes from the fitted curve, where viability falls to half of the control; where the fit passes the top or lowest dose, that dose stands as a limit. AUC sums up the same curve from the lowest dose to the 256-fold higher top dose; values near 1 show little effect. For some of these results: Any top dose called inferred comes from the curve model; the source does not state it. For some of these results: Drugs with an entry number were screened twice under separate entries, and the two screens often disagree.

How the values were obtained:
Experiment in all cases: Viability of human cancer cell lines after 72 h of drug (GDSC screen)
[1] = compound: CC/C(=C(\c1ccccc1)c1ccc(OCCN(C)C)cc1)c1ccccc1 [Tamoxifen]; conditions: top dose 5 µM
Experimental: (§1)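 Human cancer cell lines in 384-well plates, medium with 10% serum, drug for 72 h over a 256-fold dose range (nine 2-fold or five 4-fold steps up to the top dose). Adherent lines were fixed and stained with the nucleic acid dye Syto60, suspension lines read with resazurin; signal relative to control wells, capped at 0 and 100%. One two-parameter sigmoid per drug and line, fitted in a mixed model over all curves with the slope shared within a line.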

[2] = compound: Cc1c(N)nc([C@H](CC(N)=O)NC[C@H](N)C(N)=O)nc1C(=O)N[C@H](C(=O)N[C@H](C)[C@@H](O)[C@H](C)C(=O)N[C@H](C(=O)NCCc1nc(-c2nc(C(=O)NCCC[S+](C)C)cs2)cs1)[C@@H](C)O)[C@@H](OC1OC(CO)C(O)C(O)C1OC1OC(CO)C(O)C(OC(N)=O)C1O)c1cnc[nH]1 [Bleomycin]
Experimental: as §1

[3] = compound: CCCC(=O)OCc1ccc(OC(=O)/C=C(C)/C=C/C=C(C)/C=C/C2=C(C)CCCC2(C)C)cc1 [VNLG/124]; conditions: top dose 5.12 µM; top dose inferred
Experimental: as §1

[4] = compound: O=S(=O)(O)c1ccc2cc(N=Nc3cc(S(=O)(=O)O)c4cccnc4c3O)ccc2c1 [NSC-87877]; conditions: top dose 16 µM; top dose inferred
Experimental: as §1

[5] = compound: O=C(Nc1cccc(Nc2ncc(Br)c(NCCc3cnc[nH]3)n2)c1)N1CCCC1 [BX-912]; conditions: top dose 10.24 µM; top dose inferred
Experimental: as §1

[6] = compound: CN(NC(=O)CC(=O)NN(C)C(=S)c1ccccc1)C(=S)c1ccccc1 [Elesclomol]; conditions: top dose 0.2 µM; top dose inferred
Experimental: as §1

[7] = compound: O=C(Nc1ccc(OC(F)(F)F)cc1)c1sccc1NCc1ccnc2ccccc12 [OSI-930]; conditions: top dose 10.24 µM
Experimental: as §1

[8] = compound: COc1cc(N2CCC(C(N)=O)CC2)ccc1Nc1nc(N)c(Cl)c(Nc2ccccc2S(=O)(=O)C(C)C)n1 [HG-5-88-01]; conditions: top dose 10 µM; top dose inferred
Experimental: as §1

[9] = compound: Cc1ccc(NC(=O)c2ccc(CN3CCN(C)CC3)cc2)cc1Nc1nc(-c2cccnc2)cs1 [Masitinib]; conditions: top dose 20 µM
Experimental: as §1

[10] = compound: O=C(/C=C/c1ccc(CN(CCO)CCc2c[nH]c3ccccc23)cc1)NO [LAQ824]; conditions: top dose 1.024 µM; top dose inferred
Experimental: as §1

[11] = top dose 50 µM, screen: GDSC drug entry 1378, top dose inferred
[12] = top dose 64 µM, screen: GDSC drug entry 190

Cell Line | AUC [1] | IC50 [1] | AUC [2, 11] | IC50 [2, 11] | AUC [3] | IC50 [3] | AUC [4] | IC50 [4] | AUC [5] | IC50 [5] | AUC [6] | IC50 [6] | AUC [7] | IC50 [7] | AUC [8] | IC50 [8] | AUC [9] | IC50 [9] | AUC [10] | IC50 [10] | AUC [2, 12] | IC50 [2, 12]
NCI-H630 (large intestine, adherent) | 0.987 | > 5 µM | 0.897 | > 50 µM | 0.987 | > 5.12 µM | 0.95 | > 16 µM | 0.96 | > 10.2 µM | 0.974 | > 200 nM | 0.96 | > 10.2 µM | 0.91 | > 10 µM | 0.906 | > 20 µM |  |  |  | 
RL95-2 (endometrium, adherent) | 0.986 | > 5 µM | 0.694 | 10.9 µM | 0.94 | > 5.12 µM | 0.981 | > 16 µM | 0.987 | > 10.2 µM | 0.699 | 45 nM | 0.972 | > 10.2 µM | 0.966 | > 10 µM | 0.976 | > 20 µM |  |  |  | 
H290 (mesothelioma, adherent) | 0.978 | > 5 µM | 0.196 | 0.434 µM |  |  | 0.988 | > 16 µM | 0.985 | > 10.2 µM | 0.558 | 17.8 nM | 0.971 | > 10.2 µM | 0.897 | > 10 µM | 0.883 | 18.3 µM | 0.405 | 36 nM | 0.267 | 0.927 µM
MOG-G-UVW (glioma, adherent) | 0.98 | > 5 µM | 0.098 | < 0.195 µM | 0.944 | > 5.12 µM |  |  | 0.666 | 1.83 µM | 0.269 | 2.81 nM | 0.973 | > 10.2 µM | 0.893 | > 10 µM | 0.892 | > 20 µM | 0.646 | 160 nM | 0.33 | 1.36 µM
NB1 (neuroblastoma, semi-adherent) | 0.963 | > 5 µM | 0.856 | 47 µM | 0.984 | > 5.12 µM | 0.983 | > 16 µM |  |  | 0.302 | 3.26 nM | 0.919 | > 10.2 µM | 0.219 | 0.0851 µM | 0.702 | 4.94 µM | 0.478 | 55.5 nM | 0.69 | 14.5 µM
A2780 (ovary, semi-adherent) | 0.977 | > 5 µM | 0.826 | 31.8 µM | 0.975 | > 5.12 µM | 0.967 | > 16 µM | 0.461 | 0.499 µM | 0.402 | 6.65 nM | 0.897 | > 10.2 µM | 0.983 | > 10 µM | 0.84 | 14.5 µM |  |  | 0.149 | 0.309 µM
D-247MG (glioma, adherent) | 0.977 | > 5 µM | 0.598 | 6.4 µM | 0.979 | > 5.12 µM | 0.969 | > 16 µM | 0.778 | 5.8 µM | 0.612 | 28.5 nM | 0.842 | > 10.2 µM | 0.922 | > 10 µM | 0.448 | 0.858 µM |  |  |  | 
SNU-C5 (large intestine, adherent) | 0.984 | > 5 µM | 0.723 | 14.4 µM | 0.986 | > 5.12 µM |  |  | 0.94 | > 10.2 µM | 0.705 | 50.6 nM | 0.98 | > 10.2 µM | 0.908 | > 10 µM | 0.969 | > 20 µM |  |  |  | 
JHU-029 (head and neck, adherent) | 0.914 | > 5 µM | 0.178 | 0.254 µM |  |  | 0.961 | > 16 µM |  |  | 0.5 | 12.5 nM |  |  | 0.883 | > 10 µM |  |  | 0.236 | 8.97 nM | 0.333 | 1.23 µM
SCC90 (head and neck, adherent) | 0.975 | > 5 µM | 0.905 | > 50 µM |  |  | 0.981 | > 16 µM | 0.714 | 3.39 µM | 0.557 | 19 nM |  |  | 0.927 | > 10 µM |  |  | 0.607 | 143 nM | 0.779 | 38.5 µM
FLO-1 (oesophagus, adherent) | 0.971 | > 5 µM | 0.34 | 0.915 µM | 0.975 | > 5.12 µM |  |  | 0.836 | > 10.2 µM | 0.426 | 7.16 nM | 0.973 | > 10.2 µM | 0.927 | > 10 µM | 0.942 | > 20 µM |  |  |  | 
PEO1 (ovary, adherent) | 0.964 | > 5 µM | 0.362 | 1.28 µM | 0.982 | > 5.12 µM |  |  | 0.886 | > 10.2 µM | 0.506 | 13 nM | 0.982 | > 10.2 µM | 0.892 | > 10 µM | 0.956 | > 20 µM |  |  |  | 
OVCA420 (ovary, adherent) | 0.913 | > 5 µM | 0.69 | 12.8 µM | 0.974 | > 5.12 µM |  |  | 0.981 | > 10.2 µM | 0.647 | 36.6 nM | 0.979 | > 10.2 µM | 0.963 | > 10 µM | 0.974 | > 20 µM |  |  |  | 
ESO51 (oesophagus, semi-adherent) | 0.962 | > 5 µM | 0.849 | > 50 µM | 0.98 | > 5.12 µM |  |  | 0.963 | > 10.2 µM | 0.843 | > 200 nM | 0.967 | > 10.2 µM | 0.974 | > 10 µM | 0.886 | > 20 µM |  |  |  | 
